This is one part of the list.

This test relates to HSkMC (human skeletal muscle cells). Description: cytotoxicity call (relative viability < 0.9). To be noted: 10 µM.
Take `CC1(C)OC2COC3(COS(N)(=O)=O)OC(C)(C)OC3C2O1` (stereo not given): the cytotoxicity call is “inactive”.

Consider `C=C1CCC(O)CC1=CC=C1CCCC2(C)C1CCC2C(C)C=CC(C)C(C)C` (stereo not given), for which the cytotoxicity call was “inactive”.

`C[C@@H]1CN([C@H](C)CO)C(=O)Cc2cc(NS(=O)(=O)c3ccc(F)cc3)ccc2O[C@@H]1CN(C)Cc1ccc(Oc2ccccc2)cc1`: the cytotoxicity call is “active”.

For the compound `C[C@H]1CCCCO[C@H](CN(C)C(=O)Nc2ccc(C(F)(F)F)cc2)[C@@H](C)CN([C@@H](C)CO)C(=O)c2cc(NC(=O)Cc3ccccc3)ccc2O1`, the cytotoxicity call is “inactive”.

`C[C@H](CO)N1C[C@H](C)[C@@H](CN(C)C(=O)Nc2cccc3ccccc23)OCCCC[C@H](C)Oc2ccc(NC(=O)Nc3ccc4c(c3)OCO4)cc2C1=O`: the cytotoxicity call was “inactive”.

Regarding `C[C@@H]1CN([C@@H](C)CO)C(=O)c2cc(NC(=O)CCN3CCOCC3)ccc2O[C@H]1CN(C)S(=O)(=O)c1ccc(Cl)cc1`, the cytotoxicity call was “inactive”.

For `COCCNC(=O)C[C@H]1CC[C@H]2[C@H](COc3ccc(NC(=O)Nc4cccc(F)c4)cc3C(=O)N2C)O1`, the cytotoxicity call is “inactive”.

As for `O=C(CN1CCOCC1)NCC[C@@H]1CC[C@H](NS(=O)(=O)c2ccc(Cl)cc2)[C@@H](CO)O1`, the cytotoxicity call is “inactive”.

With `C[C@@H]1CN([C@H](C)CO)C(=O)c2cc(NS(C)(=O)=O)ccc2O[C@H]1CN(C)C(=O)NC1CCCCC1`, the cytotoxicity call was “inactive”.

Turning to `Cc1ccc(S(=O)(=O)N[C@@H]2CC[C@@H](CCNC(=O)CN3CCOCC3)O[C@H]2CO)cc1`, the cytotoxicity call was “inactive”.

For `CC(C)(C)c1ccc(NC(=O)c2ccc(C(C)(C)C)s2)cc1`, the cytotoxicity call was “inactive”.

In the case of `CC(C)NC(=O)Nc1ccc2c(c1)C(=O)N([C@H](C)CO)C[C@H](C)[C@@H](CN(C)C(=O)Nc1ccc(F)cc1)OCCCC[C@@H](C)O2`, the cytotoxicity call is “inactive”.

As to `Cc1noc(C)c1S(=O)(=O)Nc1ccc2c(c1)C(=O)N([C@@H](C)CO)C[C@@H](C)[C@@H](CN(C)Cc1ccccc1)O2`, the cytotoxicity call was “inactive”.

`COC(=O)c1c(CC[C@@H](CO)NC(=O)N[C@@H](Cc2ccccc2)Cn2cc(C3(O)CCCC3)nn2)oc(C(=O)N2CCOCC2)c1C(=O)OC`: the cytotoxicity call is “inactive”.

Turning to `C[C@@H]1CN([C@H](C)CO)C(=O)c2cc(NC(=O)Nc3ccc4c(c3)OCO4)ccc2O[C@@H](C)CCCCO[C@H]1CN(C)S(=O)(=O)c1ccc(Cl)cc1`, the cytotoxicity call is “inactive”.

For `C[C@@H]1CN([C@H](C)CO)S(=O)(=O)c2ccc(C#CCN(C)C)cc2O[C@@H]1CN(C)C`, the cytotoxicity call is “inactive”.

Turning to `CN1C(=O)c2cc(NC(=O)C3CCOCC3)ccc2OC[C@H]2O[C@H](CC(=O)NCCc3ccncc3)CC[C@H]21`, the cytotoxicity call was “inactive”.

For the compound `Cc1ccc(-c2cccc(C(=O)N[C@H]3CC[C@@H](N)CC3)c2)o1`, the cytotoxicity call was “inactive”.

Turning to `Cc1ccc(S(=O)(=O)N(C)C[C@@H]2OCCCC[C@@H](C)Oc3ccc(NC(=O)Nc4ccc(C(F)(F)F)cc4)cc3C(=O)N([C@H](C)CO)C[C@H]2C)cc1`, the cytotoxicity call was “inactive”.

In the case of `COc1ccc(CN(C)C[C@@H]2Oc3ccc(NC(=O)Nc4ccc(C(F)(F)F)cc4)cc3C(=O)N([C@@H](C)CO)C[C@@H]2C)cc1`, the cytotoxicity call is “active”.

For the compound `CCc1nnc(N)[nH]1`, the cytotoxicity call was “inactive”.

Consider `Cc1ccc(S[C@]2(C(=O)NCCCN(C)C)CC(=O)N(C3Cc4ccccc4C3)[C@@H]2c2ccc(CO)cc2I)cc1`, for which the cytotoxicity call was “inactive”.

In the case of `C[C@@H]1CN([C@@H](C)CO)C(=O)c2cc(NC(=O)CCN3CCOCC3)ccc2O[C@@H]1CN(C)C(=O)Nc1ccccc1`, the cytotoxicity call is “inactive”.

On to `C[C@@H]1CCCCO[C@@H](CN(C)C(=O)C2CCCCC2)[C@@H](C)CN([C@H](C)CO)C(=O)c2cc(NC(=O)CCC(F)(F)F)ccc2O1`, for which the cytotoxicity call is “inactive”.

As to `C[C@@H]1CN([C@@H](C)CO)C(=O)c2cc(NC(=O)c3ccncc3)ccc2O[C@@H]1CN(C)Cc1ccc(C(=O)O)cc1`, the cytotoxicity call is “inactive”.

Consider `C[C@@H]1CCCCO[C@@H](CN(C)CC2CC2)[C@@H](C)CN([C@H](C)CO)C(=O)c2cc(NS(C)(=O)=O)ccc2O1`, for which the cytotoxicity call was “inactive”.

On to `C[C@@H]1CCCCO[C@H](CN(C)C(=O)C2CCCCC2)[C@@H](C)CN([C@H](C)CO)C(=O)c2cc(NC(=O)CCCCCC(=O)Nc3ccccc3N)ccc2O1`, for which the cytotoxicity call is “inactive”.

As to `C[C@H](CO)N1C[C@H](C)[C@@H](CN(C)S(C)(=O)=O)OCCCC[C@H](C)Oc2ccc(NS(=O)(=O)c3cn(C)cn3)cc2C1=O`, the cytotoxicity call was “inactive”.

Turning to `CN1C2CCC1CC(OC(=O)c1c[nH]c3ccccc13)C2.Cl` (stereo not given), the cytotoxicity call is “inactive”.

As to `C[C@H]1CN([C@@H](C)CO)C(=O)Cc2cc(NC(=O)c3ccncc3)ccc2O[C@H]1CN(C)Cc1ccc2c(c1)OCO2`, the cytotoxicity call is “inactive”.

The values above are taken from the antibiotic and cytotoxicity screens of Wong et al. (2023).
